Measurements published in the supplement of paper PMC10369915.
The list shows a part of the results. Rule as the data show it: active = 3.2 or more and inactive = the rest. Only a few entries rise above the background.

Assays:
Assay in all cases: enrichment score (SH2-bound / input frequency) (ratio); bacterial display of known human phosphotyrosine sites (pTyr-Var adds point mutants) read by sequencing; higher = stronger binding; tyrosines were phosphorylated by kinases first
Details in all cases: peptide library: pTyr-Var
[1] = biological target: SHP2 C-SH2 domain E139D
[2] = biological target: SHP2 C-SH2 domain wild-type
[3] = biological target: SHP2 N-SH2 domain L43F
[4] = biological target: SHP2 N-SH2 domain T42A
[5] = biological target: SHP2 N-SH2 domain T52S
[6] = biological target: SHP2 N-SH2 domain wild-type

Measured: enrichment score
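Also: displayed peptides selected on beads carrying the immobilized SH2 domain, with library peptides lacking any tyrosine serving as negative controls.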

B1: EPOR_Y485_P488S_YF (peptide)
chain: LSDGPYSNSFE
inactive: [1] 0.639 | [2] 0.645 | [3] 0.677 | [4] 0.694 | [5] 0.562 | [6] 0.854

B2: EPHX1_Y393_T396I (peptide)
chain: ERMKVYVPIGF
inactive: [1] 0.943 | [2] 0.894 | [3] 0.927 | [4] 2.15 | [5] 0.921 | [6] 0.944

B3: ERBB2IP_Y977 (peptide)
chain: YGPPQYNIQYS
inactive: [1] 0.706 | [2] 0.755 | [3] 0.854 | [4] 0.709 | [5] 0.689 | [6] 0.575

B4: EPOR_Y489_N487S (peptide)
chain: PYSSPYENSLI
inactive: [1] 0.959 | [2] 0.894 | [3] 0.762 | [4] 1.05 | [5] 0.706 | [6] 0.767

B5: EPHB4_Y590 (peptide)
chain: HGTKVYIDPFT
inactive: [1] 1.67 | [2] 0.848 | [3] 1.11 | [4] 2.7 | [5] 1.31 | [6] 0.822

B6: ERBB2IP_Y977_I979M (peptide)
chain: YGPPQYNMQYS
inactive: [1] 0.685 | [2] 0.703 | [3] 0.734 | [4] 0.573 | [5] 0.539 | [6] 0.615

B7: ERBB2_Y1221_A1216D (peptide)
chain: DFDNLYYWDQD
inactive: [1] 0.919 | [2] 0.922 | [3] 0.816 | [4] 0.658 | [5] 0.835 | [6] 0.978

B8: EPHB2_Y912 (peptide)
chain: RTIPDYTSFNT
inactive: [1] 0.904 | [2] 0.542 | [3] 0.798 | [4] 0.538 | [5] 0.586 | [6] 0.819

B9: EPOR_Y489_YF (peptide)
chain: PFSNPYENSLI
inactive: [1] 1.39 | [2] 1.43 | [3] 1.55 | [4] 1.27 | [5] 1.26 | [6] 1.26

B10: EPOR_Y485_N487S (peptide)
chain: LSDGPYSSPYE
inactive: [1] 0.602 | [2] 0.557 | [3] 0.778 | [4] 0.457 | [5] 0.6 | [6] 0.609

B11: EPOR_Y489_P488S_YF (peptide)
chain: PFSNSYENSLI
inactive: [1] 1.22 | [2] 1.8 | [3] 2.07 | [4] 1.24 | [5] 1.03 | [6] 1.78

B12: EPOR_Y489 (peptide)
chain: PYSNPYENSLI
inactive: [1] 0.528 | [2] 0.735 | [3] 0.951 | [4] 0.687 | [5] 0.75 | [6] 0.814

B13: EPOR_Y485_P488S (peptide)
chain: LSDGPYSNSYE
inactive: [1] 0.57 | [2] 0.593 | [3] 0.759 | [4] 0.653 | [5] 0.636 | [6] 0.589

B14: EPHB4_Y574 (peptide)
chain: GREAEYSDKHG
inactive: [1] 0.452 | [2] 0.565 | [3] 0.555 | [4] 0.444 | [5] 0.431 | [6] 0.4

B15: ERBB2_Y1221 (peptide)
chain: AFDNLYYWDQD
inactive: [1] 1 | [2] 1.23 | [3] 1.18 | [4] 1.03 | [5] 1.06 | [6] 0.955

B16: ERBB2_Y772 (peptide)
chain: ILDEAYVMAGV
inactive: [1] 0.681 | [2] 0.795 | [3] 0.728 | [4] 0.712 | [5] 0.687 | [6] 0.753

B17: ERBB2_Y1221_A1216D_YF (peptide)
chain: DFDNLYFWDQD
inactive: [1] 0.91 | [2] 0.841 | [3] 0.939 | [4] 0.82 | [5] 0.809 | [6] 1.39

B18: EPM2A_Y304_P301L (peptide)
chain: KRLAVYIDEEA
inactive: [1] 0.572 | [2] 0.761 | [3] 0.706 | [4] 0.683 | [5] 0.607 | [6] 0.691

B19: EPHX1_Y283 (peptide)
chain: DVELLYPVKEK
inactive: [1] 1.09 | [2] 0.94 | [3] 1.15 | [4] 0.823 | [5] 1.01 | [6] 0.695
